# The whole screen tested about 120,000 compounds, of which about 5,300 (4.4%) were called active. The inconclusive results got no clear call from the source; some entries with a clear call stand among them for comparison. Calls come from the whole dose curve; as a rule, active = well fitted inhibition curve with a large enough effect; inconclusive = small, poorly fitted or top-dose-only effect; inactive = no such curve, though single readings can be large or run the other way. Potencies beside an inconclusive call are fits to weak or partial responses and may not hold up.
# Experiment: qHTS Primary assay for Inhibitors of Plasmodium falciparum Dd2 growth in vitro; note: nearly all actives have a fitted effect of over 65% in size
# Conditions: P. falciparum Dd2 growth, SYBR Green, 72 h; series mostly up to 28.9 µM
# Procedure, shortened: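 Infected erythrocytes (Dd2, 0.3% parasitemia, 2.5% hematocrit final) are added to compound in RPMI-1640/Albumax II medium, grown 72 h at 37C in low oxygen, then lysed with saponin/Triton-X containing SYBR Green and read by fluorescence.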
# Potency is the fitted concentration of half-maximal effect; tags give direction and shape of the fitted curve.
row,SMILES,Potency
1,O=C1Nc2ccccc2CC12CCCN2Cc1ccccn1 (configuration not stated),"inconclusive: 7.94 µM [inhibitor, partial curve, poor fit]"
2,COc1ccc(Nc2cc3c(cn2)CN(Cc2ccncc2)CCN3)cn1,inactive
3,CCOC(=O)c1cc(-c2ccc(C)cc2)n(CC(=O)Nc2ccc(OC)c(Cl)c2)c1C,inactive
4,Cc1ccc(CCNC(=O)c2cc3sccc3n2Cc2ccc(Cl)cc2)cc1,"inconclusive: 17.8 µM [inhibitor, single point]"
5,COc1ccc2nc(N(Cc3cccnc3)C(=O)c3ccco3)sc2c1,"inconclusive: 10 µM [inhibitor, single point]"
6,N#Cc1ccc(S(=O)(=O)N2CC[C@@H]3C(=O)NCCCCCCN(Cc4ccncc4)[C@@H]3C2)cc1,"inconclusive: 10 µM [inhibitor, single point]"
7,CCOC(=O)c1ccc(NC(=O)Cn2c(C)cc3nc4n(c(=O)c32)CCCC4)cc1,inactive
8,CCOC(=O)C1=C(CN2CCN(c3cc(C)ccc3C)CC2)NC(=O)NC1c1ccccc1 (configuration not stated),"inconclusive: 10 µM [inhibitor, single point]"
9,CC(C)CCN1CCn2c(nnc2-c2cccnc2)C1,"inconclusive: 2.82 µM [inhibitor, single point]"
10,c1cnc2nc(C3CCCN3)[nH]c2c1 (configuration not stated),inactive
11,O=C(Nc1ccc(F)cc1F)c1cnc(-c2ccc(F)cc2)nc1-c1ccncc1,"inconclusive: 17.8 µM [inhibitor, single point]"
12,CC(C)CC(=O)N1C(C(=O)NCC2CCCO2)COC12CCCC(C)C2 (configuration not stated),"inconclusive: 3.98 µM [inhibitor, partial curve, poor fit]"
13,Cc1ccc2nc(-c3c[nH]c4ccccc34)c(Nc3ccccc3)n2c1,"inconclusive: 10 µM [inhibitor, single point]"
14,c1nc(N2CCOCC2)c2c3c(sc2n1)CN(CC1CCCCC1)CC3,active: 2.82 µM
15,COc1ccc(C(=O)N2C[C@@H]3OCC(=O)N(Cc4ccccc4)[C@@H]3C2)cc1,inactive
16,CN1c2cc(C(=O)Nc3cccc(C#N)c3)ccc2C(=O)N2CCCCCC21 (configuration not stated),"inconclusive: 5.01 µM [inhibitor, partial curve, poor fit]"
17,Cn1nccc1-c1ccc2ncn(-c3ccc(F)cc3F)c(=O)c2n1,inactive
18,CCc1noc(-c2ccn3c(CNC(=O)Cc4ccccc4Cl)nnc3c2)n1,"inconclusive: 0.398 µM [inhibitor, full curve, poor fit]"
19,N#Cc1cccc(NC(=O)NC[C@H]2C[C@@H]3CCN2C[C@@H]3CN2CCN(c3ncccn3)CC2)c1,inactive
20,Cc1ccc(N2CC(c3noc(C4CCN(C(=O)c5ccccc5)CC4)n3)CC2=O)cc1 (configuration not stated),"inconclusive: 10 µM [inhibitor, single point]"
21,COc1cccc(CN2C(=O)C3(SCC(=O)N3c3cc(C)cc(C)c3)c3ccccc32)c1 (configuration not stated),inactive
22,O=C(c1cccc(OC2CN(Cc3cccc(F)c3F)C2)c1)N1CCOCC1,"inconclusive: 0.891 µM [inhibitor, full curve]"
23,COc1ccc(C)cc1NC(=O)CN1C(=O)COc2ccc(S(=O)(=O)N3CCCCCC3)cc21,inactive

row,SMILES,Potency
1,CCOC(=O)C1CCCN(C(=O)c2ccc3c(c2)N(Cc2cccc(Cl)c2)C(=O)c2ccccc2S3(=O)=O)C1 (configuration not stated),"inconclusive: 12.6 µM [inhibitor, single point]"
2,COC[C@H]1C[C@@H](NS(=O)(=O)c2cccc(F)c2)[C@H](O)[C@@H]1O,inactive
3,CCCN(C(=O)Cn1c(=O)oc2cc(Cl)ccc21)c1ccc(C(C)C)cc1,"inconclusive: 10 µM [inhibitor, single point]"
4,O=C1NCCCCCN(S(=O)(=O)c2ccc3c(c2)CCC3)[C@H]2CCCC[C@@H]12,"inconclusive: 20 µM [inhibitor, single point]"
5,CCOc1cccc(C2c3[nH]c4ccccc4c3CCN2C(=O)CCc2ccccc2)c1 (configuration not stated),"inconclusive: 10 µM [inhibitor, single point]"
6,Cc1cccc(NC(=O)C2CCCN(c3nnc(-n4c(C)ccc4C)s3)C2)c1C (configuration not stated),"inconclusive: 11.2 µM [inhibitor, partial curve, poor fit]"
7,CCOC(=O)c1nc(Nc2ccccc2C)c2ccccc2n1,inactive
8,Cc1cccc(C(=O)N2CCCC(N3CCN(c4cccc(C(F)(F)F)c4)CC3)C2)c1 (configuration not stated),"inconclusive: 8.91 µM [inhibitor, partial curve, poor fit]"
9,COc1ccc(C(=O)N2CCn3c(nn(-c4ccc(C(F)(F)F)cc4)c3=O)C2)cc1,inactive
10,Fc1ccc(CN2CC[C@H](c3nnc(-c4ccccc4F)o3)C2)cc1,inactive
11,Cc1cc(OCCn2cc(C(=O)c3ccco3)c3ccccc32)ccc1Cl,active: 1.12 µM
12,O=C(CC1CCCC1)N1CCC2(CC1)CC(N(Cc1ccc(F)cc1)C1CC1)CCO2 (configuration not stated),active: 7.94 µM
13,Cc1cc(C)c(S(=O)(=O)NCC(c2ccc(N(C)C)cc2)N2CCc3ccccc32)c(C)c1 (configuration not stated),"inconclusive: 11.2 µM [inhibitor, partial curve, poor fit]"
14,COc1cccc(C(=O)N2C(C(=O)NC(C)C)COC23CCN(C(=O)CC(C)(C)C)CC3)c1 (configuration not stated),inactive
15,CCOc1ccccc1CNC(=O)CSc1n[nH]c(-c2ccccc2Cl)n1,"inconclusive: 10 µM [inhibitor, single point]"
16,C=CCN1CCN(C(=O)CCC[C@H]2NC[C@@H]3C[C@H]2CN(Cc2ccccc2)C3)CC1,"inconclusive: 10 µM [inhibitor, single point]"
17,COc1cccc(-c2nc(C3CC(=O)N(c4ccc(F)cc4)C3)no2)c1 (configuration not stated),inactive
18,CC[C@H]1CN2CC[C@H]1C[C@@H]2CNS(=O)(=O)c1ccc2ccccc2c1,"inconclusive: 2.82 µM [inhibitor, full curve]"
19,O=C(NC[C@H]1O[C@H](Cc2cc(CN3CCOCC3)on2)CC[C@@H]1O)c1cccc(F)c1,inactive
20,CC(NC(=O)c1csc2nc(-c3cccc(C(F)(F)F)c3)cn12)c1ccncn1 (configuration not stated),"inconclusive: 17.8 µM [inhibitor, single point]"
21,CCOc1ccc(S(=O)(=O)c2cn(Cc3ccc(C)cc3)c3ccc(OC)cc3c2=O)cc1,"inconclusive: 3.98 µM [inhibitor, partial curve, poor fit]"
22,Cc1ccc(-c2cnc(NCc3ccc(C(C)C)cc3)n2C)cc1,"inconclusive: 11.2 µM [inhibitor, single point]"
23,CNS(=O)(=O)CCNc1nccc(-c2cc(C(=O)O)ccn2)n1,inactive

row,SMILES,Potency
1,Cc1c(CCNS(=O)(=O)c2ccccc2)sc2nc(-c3ccc(Cl)cc3)nn12,"inconclusive: 20 µM [inhibitor, single point]"
2,c1cnc(N2CCC3(CCCN3Cc3ccc(-c4ccn[nH]4)s3)CC2)nc1,inactive
3,COc1ccc(CN2CCCC(COc3ccccc3C(=O)NC(C)C)C2)c(OC)c1 (configuration not stated),"inconclusive: 14.1 µM [inhibitor, partial curve]"
4,Cc1ccc(NCc2nc3ccccc3n2CCOc2ccccc2C)cc1,"inconclusive: 14.1 µM [inhibitor, single point]"
5,CC1=C[C@@H](CNS(=O)(=O)c2ccc(Cl)cc2)[C@H](C(C)C)C[C@H]1CC(=O)N1CCOCC1,"inconclusive: 17.8 µM [inhibitor, single point]"
6,Nc1c(C(=O)Nc2ccccc2Cl)nnn1Cc1cccc(Cl)c1,active: 7.08 µM
7,NC(=O)[C@@H](Cc1ccccc1)NC(=O)C1=C[C@@H](NC(=O)CS(=O)(=O)c2ccccc2)[C@@H](O)[C@H](O)C1,inactive
8,CCOC(=O)C1CCCN(C(=O)c2cc3c(s2)CN(C2CCCC2)C3)C1 (configuration not stated),"inconclusive: 7.94 µM [inhibitor, partial curve]"
9,CN(C)CCNC(=O)c1nc2nc(-c3ccccc3)c(-c3cccc(F)c3)cc2n1C,"inconclusive: 2 µM [inhibitor, full curve, poor fit]"
10,COc1ccc(Cl)cc1C(=O)N1CCC(N2CC3CC(C2)[C@H]2CCCC(=O)N2C3)CC1 (some centres not stated),inactive
11,CCc1nc2c(c(-c3ccc(OC)cc3)n1)CCN(C(=O)c1ccc3c(c1)OCO3)CC2,inactive
12,CCN1C(=O)C2CC3(CCN(Cc4ccc5[nH]ccc5c4)CC3)CN2C1=O (configuration not stated),"inconclusive: 17.8 µM [inhibitor, single point]"
13,C=CCN(C)C(=O)C[C@@H]1c2nc(NC(=O)c3c(F)cccc3F)sc2C[C@@H]2[C@](C)(CO)[C@H](O)CC[C@]21C,"inconclusive: 7.94 µM [inhibitor, partial curve, poor fit]"
14,Cc1cccc(NC(=O)c2ccc(F)c(S(=O)(=O)N(C)C3CCCCC3)c2)c1,"inconclusive: 20 µM [inhibitor, partial curve, poor fit]"
15,CCOc1ccc(C(=O)N2CCN(Cc3cc(=O)n4nc(-c5cccc(OC)c5)sc4n3)CC2)cc1,"inconclusive: 11.2 µM [inhibitor, single point]"
16,CN(C)C(=O)c1ccc(-c2ncc3c(n2)OCCN(Cc2ccccc2)C3=O)cc1,active: 2.24 µM
17,Cc1cc(C)c(Cn2c(C)c(CNCc3ccccc3C)c(C(=O)O)c2C)c(C)c1,"inconclusive: 10 µM [inhibitor, single point]"
18,CCc1ccccc1NC(=O)C(=O)c1cc(C)n(-c2ccccc2F)c1C,"inconclusive: 17.8 µM [inhibitor, single point]"
19,CC(C)(CN1CCC(Cc2ccc(C(=O)O)cc2)C1)N1CCOCC1 (configuration not stated),inactive
20,CN1c2cc(C(=O)Nc3cccc(F)c3)ccc2C(=O)N2CCCCCC21 (configuration not stated),inactive
21,COc1cccc(CNC(=O)C2(N3C[C@@H](C)O[C@@H](C)C3)Cc3ccccc3C2)c1,inactive
